Patent publication US20240190943A1 (HANGZHOU EXEGENESIS BIO, published 2024)
Values belong to the binder of their own block, whether it stands above or below them.

What was measured:
VEGF-C = target: T1, VEGF-C (UniProt P49767 103-227, limits assumed); assay: ELISA on VEGF-C, protein affinity-purified from transfected HEK293T cells; axis 'VEGF-C (130nM) Affinity OD450'
T1 sequence (looked up): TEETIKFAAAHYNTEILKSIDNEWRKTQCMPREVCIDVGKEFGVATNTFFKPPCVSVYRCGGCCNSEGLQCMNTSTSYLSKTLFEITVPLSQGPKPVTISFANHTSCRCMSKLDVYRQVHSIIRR
Method: HEK293T cells were transfected with plasmid DNA of pEXG102-02, pEXG102-30 or pEXG102-31 and the target protein expressed were affinity purified from the cell lysate. Binding capability of EXG102-02, EXG102-30 or EXG102-31 to VEGF-A, Ang2, or VEGF-C was measured by ELISA respectively. Bars present Mean with SD.
In vitro VEGF-A, Ang2, or VEGF-C binding affinity of the transgene products expressed from HEK293T cells was measured. HEK293T cells were transfected with plasmid DNA of pEXG102-02, pEXG102-30 or pEXG102-31. The target protein expressed were affinity purified from the cell lysate. Binding capability of EXG102-02, EXG102-30 and EXG102-31 to VEGF-A, Ang2, and VEGF-C was measured by ELISA, respectively.

VEGF-A [1] = target: T2, VEGF-A (UniProt P15692-4 27-191, limits assumed); assay: ELISA: wells coated with rVEGF, conditioned medium of HEK293 cells, anti-Fc-HRP, OD450; given as concentration in the medium
T2 construct: also called rVEGF; vascular endothelial growth factor
T2 sequence (looked up): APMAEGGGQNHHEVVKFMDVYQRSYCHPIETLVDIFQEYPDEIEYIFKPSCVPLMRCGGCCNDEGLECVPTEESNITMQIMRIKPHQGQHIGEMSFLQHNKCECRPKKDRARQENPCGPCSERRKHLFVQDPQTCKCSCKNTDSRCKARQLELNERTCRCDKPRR

VEGF-A [2] = target: T2, VEGF-A; assay: rVEGF ELISA value relative to the Western blot intensity of the same DMEM 72h conditioned medium
VEGF-A [3] = target: T2, VEGF-A; assay: ELISA: wells coated with rVEGF, DMEM 72h conditioned medium, anti-Fc-HRP, OD450; given as concentration in the medium
VEGF-A [4] = target: T2, VEGF-A; assay: rVEGF ELISA value divided by the Western blot intensity of the same conditioned medium
angiopoietin 2 = target: T3, angiopoietin 2 (UniProt O15123 19-496, limits assumed); assay: Ang2 binding ELISA (OD450), titration in pM of the product of plasmid-transfected cells
T3 construct: also called Ang2; ANGPT2
T3 sequence (looked up): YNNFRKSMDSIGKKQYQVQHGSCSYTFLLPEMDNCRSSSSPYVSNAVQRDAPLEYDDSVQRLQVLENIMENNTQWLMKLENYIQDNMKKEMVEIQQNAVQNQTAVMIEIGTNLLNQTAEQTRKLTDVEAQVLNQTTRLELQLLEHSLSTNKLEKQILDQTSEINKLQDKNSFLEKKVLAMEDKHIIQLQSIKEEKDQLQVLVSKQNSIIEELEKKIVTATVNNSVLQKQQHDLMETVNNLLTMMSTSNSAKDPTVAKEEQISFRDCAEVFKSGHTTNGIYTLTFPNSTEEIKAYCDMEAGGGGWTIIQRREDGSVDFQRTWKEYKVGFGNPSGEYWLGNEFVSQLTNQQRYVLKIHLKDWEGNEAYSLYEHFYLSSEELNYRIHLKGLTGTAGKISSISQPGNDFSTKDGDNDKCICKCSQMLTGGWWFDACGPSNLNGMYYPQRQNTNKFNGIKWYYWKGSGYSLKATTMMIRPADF

B2: Exemplary polypeptide 1 (Fc fusion)
chain: SDTGRPFVEMYSEIPEIIHMTEGRELVIPCRVTSPNITVTLKKFPLDTLIPDGKRIIWDSRKGFIISNATYKEIGLLTCEATVNGHLYKTNYLTHRQTNTIIDVVLSPSHGIELSVGEKLVLNCTARTELNVGIDFNWEYPSSKHQHKKLVNRDLKTQSGSEMKKFLSTLTIDGVTRSDQGLYTCAASSGLMTKKNSTFVRVHEK[sequence of human IgG1 Fc not given]GGGGGAQQEECEWDPWTCEHMGSGSATGGSGSTASSGSGSATHQEECEWDPWTCEHMLE
notes: also called EXG102-04; EXG102-07
ELISA ug/mL (Binding to rVEGF) (VEGF-A [1]): 8.22 µg/mL | Ratio ELISA/WB (VEGF-A [2]): 1.8 | ELISA ug/ml (Binding to rVEGF) (VEGF-A [3]): 5.38 µg/mL | Ratio ELISA/WB (VEGF-A [4]): 1.1 | EC50 (read off the curve) (angiopoietin 2): ~0.08 nM

B4: Exemplary polypeptide 3 (Fc fusion)
chain: GGGGGSGGGGGAQQEECEWDPWTCEHMGSGSATGGSGSTASSGSGSATHQEECEWDPWTCEHMLEGGGGGSSDTGRPFVEMYSEIPEIIHMTEGRELVIPCRVTSPNITVTLKKFPLDTLIPDGKRIIWDSRKGFIISNATYKEIGLLTCEATVNGHLYKTNYLTHRQTNTIIDVVLSPSHGIELSVGEKLVLNCTARTELNVGIDFNWEYPSSKHQHKKLVNRDLKTQSGSEMKKFLSTLTIDGVTRSDQGLYTCAASSGLMTKKNSTFVRVHEK[sequence of human IgG1 Fc not given]
notes: also called EXG102-11; EXG102-12
EC50 (read off the curve) (angiopoietin 2): ~0.05 nM

Further lines, results first:

binding result (VEGF-C): no binding (tested: about 160000 pM)
B1: Exemplary polypeptide 11 (as in EXG102-30) (Fc fusion)
chain: GGGGGAQGSGSATGGSGSTASSGSGSATHKFNPLDELEETLYEQFTFQQGGGGGQEECEWDPWTCEHMLEGGGGGSSDTGRPFVEMYSEIPEIIHMTEGRELVIPCRVTSPNITVTLKKFPLDTLIPDGKRIIWDSRKGFIISNATYKEIGLLTCEATVNGHLYKTNYLTHRQTNTIIDVVLSPSHGIELSVGEKLVLNCTARTELNVGIDFNWEYPSSKHQHKKLVNRDLKTQSGSEMKKFLSTLTIDGVTRSDQGLYTCAASSGLMTKKNSTFVRVHEK[sequence of human IgG1 Fc not given]
notes: also called pEXG102-30 transgene product

EC50 (read off the curve) (VEGF-C): ~7 nM
B3: Exemplary polypeptide 12 (as in EXG102-31) (Fc fusion)
chain: GGGGGAQGSGSATGGSGSTASSGSGSATHKFNPLDELEETLYEQFTFQQGGGGGQEECEWDPWTCEHMLEGGGGGSSDTGRPFVEMYSEIPEIIHMTEGRELVIPCRVTSPNITVTLKKFPLDTLIPDGKRIIWDSRKGFIISNATYKEIGLLTCEATVNGHLYKTNYLTHRQTNTIIDVVLSPSHGIELSVGEKLVLNCTARTELNVGIDFNWEYPSSKHQHKKLVNRDLKTQSGSEMKKFLSTLTIDGVTRSDQGLYTCAASSGLMTKKNSTFVRVHEKGGGGGSYSMTPPTLNITEESHVIDTGDSLSISCRGQHPLEWAWPGAQEAPATGDKDSEDTGVVRDCEGTDARPYCKVLLLHEVHANDTGSYVCYYKYIKARIEGTTAASSYVFVRDFEQPFINKPDTLLVNRKDAMWVPCLVSIPGLNVTLRSQSSVLWPDGQEVVWDDRRGMLVSTPLLHDALYLQCETTWGDQDFLSNPFLVHITG[sequence of human IgG1 Fc not given]
notes: also called pEXG102-31 transgene product
